The list shows a part of the results. Sequences were assembled here from the parent chain. Inactive controls read about 0.05.
B1: TEV protease; numbered along this chain (parent)
chain: MGESLFKGPRDYNPISSSICHLTNESDGHTTSLYGIGFGPFIITNKHLFRRNNGTLVVQSLHGVFKVKDTTTLQQHLVDGRDMIIIRMPKDFPPFPQKLKFREPQREERICLVTTNFQTKSMSSMVSDTSCTFPSGDGIFWKHWIQTKDGQCGSPLVSTRDGFIVGIHSASNFTNTNNYFTSVPKNFMELLTNQEAQQWVSGWRLNADSVLWGGHKVFMVKPEEPFQPVKEATQL

Variants of: B1
Assay: raw area under fraction-flipped curve 0-4 h after induction (AUC4h, not background-subtracted), DNA-recorder readout of cleavage of the substrate (dimensionless); higher = more cleavage of the substrate by the protease variant
Conditions: temperature: 34 °C; time window: 0-4 h after rhamnose induction
Protocol: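 In vivo DNA recorder in E. coli TOP10(DE3) ΔrhaA at 34 °C. Each TEVp single-site mutant (parent TEVp 0) is paired with a single-site variant of the 7-mer TEVs (canonical ENLYFQ|S). The substrate sits between flexible linkers in a Bxb1-sfGFP-TEVs-SsrA fusion, so cleavage stabilises Bxb1 and speeds flipping of a recombination array, read by NGS. The value is the raw area under the fraction-flipped curve over 0-4 h after rhamnose induction (AUC4h), with ≥20 reads per time point. It is not background-subtracted; inactive controls average about 0.047.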
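Note: Bxb1 expression induced with 0.2% (w/v) L-rhamnose at OD600 near 0.5, cultures sampled hourly, flipped fraction per protease–substrate barcode pair counted by paired-end Illumina sequencing.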

Variant | area with substrate ENLYFQA | area with substrate ENLYFQG | area with substrate ENLYFQH | area with substrate ENLYFQP | area with substrate ENLYFQS | area with substrate ENLYFQT | area with substrate ENLYFQW | area with substrate ENLYFQC | area with substrate ENLYFQD | area with substrate ENLYFQK | area with substrate ENLYFQQ | area with substrate ENLYFQR | area with substrate ENLYFQI | area with substrate ENLYFQE | area with substrate ENLYFQF | area with substrate ENLYFQL | area with substrate ENLYFQM | area with substrate ENLYFQV | area with substrate ENLYFQN | area with substrate ENLYFQY
T147C | 0.0951 | 0.139 | 0.065 | 0.0667 | 0.0861 | 0.0682 | 0.0689 |  |  |  |  |  |  |  |  |  |  |  |  | 
D208G | 0.0798 |  | 0.0558 |  | 0.0805 | 0.0549 |  | 0.0732 | 0.0558 | 0.0595 | 0.138 | 0.053 |  |  |  |  |  |  |  | 
F117W | 0.0906 | 0.107 |  | 0.0695 | 0.107 | 0.0801 | 0.0642 | 0.0665 | 0.0662 | 0.0646 |  |  | 0.0331 |  |  |  |  |  |  | 
F140D | 0.0549 | 0.0328 |  | 0.0681 | 0.0595 |  | 0.0443 | 0.065 | 0.0667 | 0.0729 | 0.0629 | 0.0537 | 0.0508 | 0.071 | 0.0574 | 0.062 | 0.0494 | 0.0752 |  | 
S201V | 0.128 | 0.0955 | 0.0767 | 0.0574 | 0.1 | 0.0632 | 0.0644 | 0.132 | 0.0739 | 0.0744 |  | 0.0504 | 0.0381 |  | 0.0771 |  | 0.101 | 0.0482 | 0.103 | 
H62C | 0.0902 | 0.0935 | 0.0519 |  | 0.103 | 0.061 | 0.0704 | 0.098 |  | 0.0547 | 0.0653 | 0.0572 | 0.0621 |  | 0.0766 | 0.0698 | 0.0778 | 0.0661 | 0.0727 | 0.0933
S16P | 0.0812 | 0.101 | 0.0806 | 0.0679 | 0.0983 | 0.0759 | 0.06 | 0.116 | 0.0855 | 0.0535 | 0.067 | 0.0518 |  |  | 0.0799 | 0.057 | 0.0861 |  | 0.0696 | 0.0861
Q105H | 0.0834 | 0.0898 |  |  | 0.107 |  | 0.0686 | 0.132 | 0.066 | 0.0617 |  | 0.0745 | 0.171 |  |  | 0.0602 | 0.102 | 0.0624 | 0.0518 | 0.0913
R50V | 0.14 |  | 0.102 | 0.0598 | 0.134 | 0.0599 | 0.0726 |  | 0.0597 |  |  | 0.077 | 0.0696 |  | 0.0792 | 0.113 | 0.114 | 0.0608 | 0.0853 | 0.066
W203L | 0.0558 | 0.066 | 0.0702 |  | 0.0689 | 0.0596 | 0.0707 | 0.0675 | 0.0632 | 0.0585 |  |  |  | 0.0539 |  | 0.0578 |  | 0.061 | 0.0618 | 0.0636
F173G | 0.078 |  |  |  | 0.0842 |  | 0.0669 | 0.106 |  | 0.0704 |  | 0.0505 | 0.0768 |  |  |  | 0.0675 | 0.0571 | 0.059 | 
P155R | 0.0627 | 0.0623 | 0.0534 |  | 0.0525 | 0.0548 | 0.0555 | 0.0479 | 0.0564 | 0.0557 | 0.0702 | 0.051 | 0.0389 |  | 0.0494 |  | 0.0457 | 0.0487 | 0.0554 | 0.0517
K120R | 0.126 | 0.109 | 0.0888 | 0.0637 | 0.108 | 0.0788 | 0.0721 | 0.117 | 0.0719 | 0.0576 |  | 0.0538 | 0.061 |  |  | 0.0655 | 0.103 | 0.0419 | 0.0759 | 0.0666
R102K | 0.104 |  |  | 0.0662 | 0.113 | 0.0652 | 0.0639 | 0.134 |  | 0.0902 | 0.0812 | 0.0491 | 0.0632 | 0.0306 |  | 0.0623 | 0.085 |  |  | 0.073
I43M | 0.0772 | 0.0636 | 0.0427 | 0.0543 | 0.0857 | 0.0557 | 0.0669 | 0.0758 |  | 0.0571 |  |  | 0.0478 |  | 0.065 | 0.0648 | 0.0987 |  | 0.0638 | 0.0839
C111F | 0.124 | 0.0945 | 0.0912 |  | 0.108 | 0.0724 | 0.0545 |  | 0.081 | 0.0668 |  | 0.0637 | 0.0448 |  |  | 0.0414 | 0.108 |  | 0.0883 | 0.0712
F92P | 0.0561 | 0.0558 | 0.0494 |  | 0.0605 | 0.0518 | 0.0686 | 0.0603 |  |  |  | 0.055 | 0.0453 |  |  |  | 0.057 | 0.0399 | 0.054 | 0.0454
K7N | 0.0712 | 0.0762 | 0.0861 | 0.0646 | 0.107 | 0.0695 | 0.0703 | 0.132 | 0.0843 | 0.0689 | 0.0703 | 0.0758 | 0.0611 |  |  | 0.0171 |  |  | 0.0879 | 
Q227F | 0.0926 | 0.109 | 0.0739 |  | 0.0995 |  |  | 0.0874 |  | 0.0726 | 0.0638 | 0.0546 |  |  | 0.0891 |  |  |  | 0.0823 | 0.064
F65S | 0.119 |  | 0.0642 | 0.0734 | 0.0924 | 0.0607 |  |  | 0.0523 |  |  | 0.0314 | 0.0568 |  |  | 0.0651 | 0.0415 | 0.125 |  | 0.0817
K142C | 0.0886 | 0.0796 |  | 0.0624 | 0.0914 |  | 0.0592 |  |  | 0.0572 |  | 0.0745 | 0.0635 | 0.0602 |  | 0.068 |  |  | 0.0724 | 
M188I | 0.124 | 0.113 | 0.0849 |  | 0.113 |  | 0.0412 |  |  | 0.0219 |  | 0.0592 |  | 0.058 |  | 0.0485 |  |  | 0.0819 | 
C131R | 0.0701 |  |  | 0.0595 | 0.0955 | 0.0416 | 0.0486 |  | 0.0317 |  |  | 0.054 |  |  |  | 0.0649 |  |  |  | 
N193E | 0.0867 | 0.0601 |  | 0.0557 | 0.0913 | 0.0659 | 0.0627 | 0.101 |  | 0.06 |  |  | 0.0584 |  |  |  | 0.0789 |  | 0.0843 | 0.0734
N186K | 0.0599 |  | 0.0744 |  | 0.0903 |  | 0.0614 | 0.111 |  | 0.0644 |  | 0.057 | 0.0485 |  |  | 0.0572 | 0.0753 | 0.0648 | 0.084 | 0.0763
Y179I | 0.0548 |  | 0.0614 |  | 0.0609 |  |  |  |  |  |  | 0.0676 |  |  |  | 0.0611 |  |  | 0.0562 | 0.063
P93Q | 0.0954 | 0.11 |  |  | 0.102 |  | 0.0645 |  | 0.0527 | 0.063 |  | 0.0607 |  |  | 0.072 | 0.0709 | 0.0845 | 0.0666 | 0.105 | 
